From patent US9968649B2, “Vasopressin formulations for use in treatment of hypotension” (Par Pharmaceutical, Inc., priority 2015, dated 2018)
Where “and” joins values, the source holds several entries; their conditions need not be identical. Identical values can stand only once. The source gives many values for each of these; only a part stands here.

Assay: Effect of temperature on vasopressin formulations: HPLC vasopressin assay and impurities on storage (Example 8)
Assay type: physicochemical
Procedure: To analyze degradation products of vasopressin that can be present in an illustrative formulation of vasopressin, gradient HPLC was performed to separate vasopressin from related peptides and formulation components. TABLE 2 below depicts the results of the experiment detailing the chemical formula, relative retention time (RRT), molar mass, and structure of vasopressin and detected impurities.
Vasopressin was detected in the eluent using UV absorbance. The concentration of vasopressin in the sample was determined by the external standard method, where the peak area of vasopressin in sample injections was compared to the peak area of vasopressin reference standards in a solution of known concentration. The concentrations of related peptide impurities in the sample were also determined using the external standard method, using the vasopressin reference standard peak area and a unit relative response factor. An impurities marker solution was used to determine the relative retention times of identified related peptides at the time of analysis.
To test the effect of temperature on the stability of vasopressin formulation, solutions containing 20 units/mL vasopressin and chlorobutanol, adjusted to pH 3.5 with acetic acid, were prepared. One mL of each vasopressin formulations was then filled into 3 cc vials. Each Vasopressin Formulation was stored either inverted or upright for at least three months, up to 24 months, at: (i) 5° C.; (ii) 25° C. and 60% relative humidity; or (iii) 40° C. and 75% humidity, and the amount of vasopressin (U/mL) and % total impurities were measured periodically. TABLES 7-12 below display the results of the experiments at 5° C. The results of the experiments at 25° C. are included in TABLES 13-18. All of the experiments were performed in triplicate. The results of the experiments at 40° C. are included in TABLES 19-24. For each temperature tested, three lots of the vasopressin formulation were stored for 24 months (5° C. and 25° C.) and 3 months (40° C.), and measurements were taken at regular intervals during the testing periods. “NMT” as used in the tables denotes “not more than.”
Experiments were also conducted on the same samples above over the course of the experiments to measure the amount of individual impurities in the samples, pH of the samples, chlorobutanol content, particulate matter, antimicrobial effectiveness, and bacterial endotoxin levels (TABLES 25-42). (NR=no reading; ND=not determined; UI=unidentified impurity).

Compound: NC(=O)CC[C@@H]1NC(=O)[C@H](Cc2ccccc2)NC(=O)[C@H](Cc2ccc(O)cc2)NC(=O)[C@@H](N)CSSC[C@@H](C(=O)N2CCC[C@H]2C(=O)N[C@@H](CCCN=C(N)N)C(=O)NCC(N)=O)NC(=O)[C@H](CC(N)=O)NC1=O [Vasopressin, Cyclo (1-6) L-Cysteinyl-L-Tyrosyl-L-Phenylalanyl-L-Glutaminyl-L-Asparaginyl-L-Cysteinyl-L-Prolyl-L-Arginyl-L-Glycinamide]
- Total Impurities (Upright, 40° C. (75% humidity), 1 month): 3.8%
- Total Impurities (Upright, 40° C. (75% humidity), 2 months): 7.1% and 6.3%
- Total Impurities (Upright, 40° C. (75% humidity), 3 months): 10.2% and 10.5%
- Total Impurities (Upright, 40° C. (75% humidity), Initial): 1.5%
- Total Impurities (inverted, 5° C., 1 month): 2.0% and 2.2% and 1.9%
- Total Impurities (inverted, 5° C., 2 months): 2.1% and 2.3% and 2.0%
- Total Impurities (inverted, 5° C., 3 months): 2.3% and 2.4% and 2.2%
- Total Impurities (inverted, 5° C., 6 months): 2.2% and 2.1% and 2.0%
- Total Impurities (inverted, 5° C., 9 months): 2.3% and 2.1%
- Total Impurities (inverted, 5° C., 12 months): 2.6% and 2.7% and 2.4%
- Total Impurities (inverted, 5° C., 18 months): 2.9% and 2.6%
- Total Impurities (inverted, 5° C., 24 months): 2.9% and 2.8%
- Total Impurities (inverted, 5° C., Initial): 2.3% and 2.7% and 2.2%
- Total Impurities (inverted, 40° C. (75% humidity), 2 months): 6.3%
- Total Impurities (inverted, 40° C. (75% humidity), Initial): 1.5%
